Assay results published in PMC9926122.
These are yes or no findings as the source states them, for the method shown. For some assays here: In cells and extracts the contact can be indirect. Some entries that bind do so weakly or less than the wild type. For some assays here: Sequences can lack the tags named with a protein.

Amino acid sequences for entries named in this document (tags omitted).
UniProt Q15691: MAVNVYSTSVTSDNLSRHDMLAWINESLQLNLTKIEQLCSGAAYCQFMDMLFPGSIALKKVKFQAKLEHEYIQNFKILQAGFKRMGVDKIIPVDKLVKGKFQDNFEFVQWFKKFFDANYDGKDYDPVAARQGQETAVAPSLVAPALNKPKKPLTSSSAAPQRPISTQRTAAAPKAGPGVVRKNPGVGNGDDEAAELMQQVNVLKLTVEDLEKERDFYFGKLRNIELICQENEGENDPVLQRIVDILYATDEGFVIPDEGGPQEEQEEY

Experiments:
[1] = biological target: EB1-GST (human) (UniProt Q15691); assay: pull-down; purified Ska1 WT or mutant proteins incubated with EB1-GST preincubated with GSH-Sepharose beads; beads washed with lysis buffer; immunoblot; both purified
[2] = biological target: 6xHis-tagged WT Ska1 (human) (UniProt Q96BD8); assay: high-speed atomic force microscopy (HS-AFM); proteins (10-30 nM; 10 nM in the frames shown) in BRB80 buffer (80 mM Pipes, 1 mM EGTA, 1 mM MgCl2, pH 6.9) on mica, tapping mode, 150 ms per frame; EB1 alone, Ska1 alone and their mixture; both purified
[3] = biological target: endogenous EB1 (end binding 1) (human (endogenous in HEK293T)) (UniProt Q15691); assay: co-IP; endogenous EB1 immunoprecipitated with EB1 antibody (protein A/G beads) from lysates of transfected HEK293T cells synchronized in mitosis by double thymidine; Western blot for the GFP-tagged Ska1 proteins
[4] = biological target: Ska1 1-91-GFP (human) (UniProt Q96BD8); assay: co-IP; GFP-tagged Ska1 proteins pulled down with GFP-trap beads (4 h) from lysates of transfected HEK293T cells synchronized in mitosis by double thymidine, in part with Ska1 siRNA; Western blot for EB1 or Ska3
[5] = biological target: Ska1 SHNN-GFP (human) (UniProt Q96BD8); assay: as above
[6] = biological target: full-length Ska1-GFP (siRNA-resistant) (human) (UniProt Q96BD8); assay: as above
[7] = biological target: Ska1 1-132-GFP (human) (UniProt Q96BD8); assay: as above
[8] = biological target: Ska1 Δloop-GFP (human) (UniProt Q96BD8); assay: as above
[9] = biological target: Ska1 1-132-GFP (human) (UniProt Q96BD8); assay: co-IP; Ska1 1-132-GFP immunoprecipitated with GFP antibody (Takara), protein A/G beads; blot for EB1

**Q.** For “6xHis Ska1Δloop (from UniProt Q96BD8 1-91; Q96BD8 133-255)”, which binding [1] is on record?
**A.** no binding

**Q.** With “6xHis-tagged WT Ska1 (from UniProt Q96BD8 1-255)” as the substance, how does the binding [2] read?
**A.** no binding (tested: 10 nM)

**Q.** “Ska1 1-132-GFP (from UniProt Q96BD8 1-132) (domain or fragment)” was tested. Which binding [3] did it give?
**A.** binds

**Q.** For “Ska1 Δloop-GFP (from UniProt Q96BD8 1-91; Q96BD8 133-255)”, which binding [3] is on record?
**A.** no binding

**Q.** Which binding [4] does the source give for “endogenous EB1 (end binding 1) (from UniProt Q15691 1-268)” here?
**A.** no binding

**Q.** What about the binding [5] of the same substance?
**A.** no binding

**Q.** What about the binding [6] of the same substance?
**A.** binds

**Q.** What about the binding [7] of the same substance?
**A.** binds

**Q.** What about the binding [8] of the same substance?
**A.** no binding

**Q.** What about the binding [9] of the same substance?
**A.** binds

**Q.** For “full-length Ska1-GFP (siRNA-resistant) (from UniProt Q96BD8 1-255)”, which binding [3] is on record?
**A.** binds
